Measurements published in PubChem BioAssay AID1671188 (National Center for Advancing Translational Sciences (NCATS), 2021).
Where “and” joins values, the source holds several entries; their conditions need not be identical. Equal entries are not always repeated. The campaign covered roughly 100,000 compounds. About 250 (0.25%) were called active. The inconclusive results got no clear call from the source; some entries with a clear call stand among them for comparison. The call rests on the fitted dose curve; in most records, active means well fitted inhibition curve with a large enough effect; inconclusive means small, poorly fitted or top-dose-only effect; inactive means flat fitted curve, though single readings scatter. Potencies beside an inconclusive call are fits to weak or partial responses and may not hold up.

Molecular target: Alanine aminotransferase 2 (Homo sapiens) (UniProt Q8TD30)
Experiment: Primary qHTS assay for inhibitors of Glutamate pyruvate transaminase 2 (GPT2); further: nearly all actives have a fitted effect of over 60% in size
Settings: Recombinant GPT2, coupled pyruvate oxidase/HRP Amplex Red fluorescence; series mostly up to 57.7 µM
Procedure, shortened: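 Fluorescence read-out: pyruvate from GPT2 turnover coupled to pyruvate oxidase, HRP and Amplex Red (0.2mM ThPP, 0.2U/mL PO and HRP, 50uM Amplex final). Substrates 250uM a-KG, 2mM L-alanine; enzyme 10ng/uL; 30 min RT.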
Potency means the concentration at half of the fitted maximal effect; tags describe the fitted curve by direction and shape.

UniProt Q8TD30, sequence (Q8TD30 whole entry, looked up): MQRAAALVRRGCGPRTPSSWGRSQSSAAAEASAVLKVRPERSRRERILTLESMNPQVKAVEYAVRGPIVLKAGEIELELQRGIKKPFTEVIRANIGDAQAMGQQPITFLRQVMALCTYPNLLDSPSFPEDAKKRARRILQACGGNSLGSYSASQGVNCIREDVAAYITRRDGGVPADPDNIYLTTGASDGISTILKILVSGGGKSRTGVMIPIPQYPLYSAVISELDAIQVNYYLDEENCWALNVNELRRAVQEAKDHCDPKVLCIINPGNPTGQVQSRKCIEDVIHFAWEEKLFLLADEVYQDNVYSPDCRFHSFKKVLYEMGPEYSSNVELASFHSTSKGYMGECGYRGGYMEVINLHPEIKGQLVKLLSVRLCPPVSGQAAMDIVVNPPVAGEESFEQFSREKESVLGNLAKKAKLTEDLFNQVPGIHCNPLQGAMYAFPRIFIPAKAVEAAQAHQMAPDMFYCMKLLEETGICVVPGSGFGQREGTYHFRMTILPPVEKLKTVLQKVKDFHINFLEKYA

Compound | Potency
Cn1c(CCCC(=O)O)nc2cc(N(CCCl)CCCl)ccc21 | inconclusive: 3.16 µM [inhibitor, single point]
CN1CCc2cc(O)cc3c2[C@H]1Cc1ccc(O)c(O)c1-3 | inconclusive: 31.6 µM [inhibitor, single point]
CC(NC(C)(C)C)C(=O)c1cccc(Cl)c1 (centres undefined) | inconclusive: 4.47 µM [inhibitor, single point]
C#C[C@H]1CN2CC[C@H]1C[C@@H]2CNC(=O)c1ccc(F)c(Cl)c1 | inconclusive: 56.2 µM [inhibitor, single point]
CN(Cc1ccccc1)C[C@H]1CN2CC[C@H]1C[C@@H]2CNC(=O)c1ccccc1 | inactive
CCOC(=O)CC(SP(=S)(OC)OC)C(=O)OCC (centres undefined) | inconclusive: 70.8 µM [inhibitor, single point]
O=[N+]([O-])c1ccc(Cl)nc1N1CC2CCC(C1)N2CC(F)(F)F | inconclusive: 44.7 µM [inhibitor, single point]
CC(C)CN1Cc2ccccc2-n2ccnc2C12CCN(C(=O)c1cccs1)CC2 | inactive
C[C@]12CC[C@H](O)C[C@@H]1CC[C@@H]1[C@@H]2CC[C@]2(C)[C@@H](C3=CC(=O)OC3)CC[C@]12O | inactive
Nc1cncc(-c2ccc(CN3CCCC3)cn2)c1 | inconclusive: 39.8 µM [inhibitor, single point]
CN1CC[C@]23c4c5ccc(O)c4O[C@H]2[C@@H](O)C=C[C@H]3[C@H]1C5 | active: 28.2 µM
C[S+](=O)([O-])N1CCC2(CC1)C(=O)NN=C2c1cccnc1 | inconclusive: 5.62 µM [inhibitor, partial curve, poor fit]
C=CCC1([C@H](C)CCC)C(=O)NC(=O)NC1=O | inconclusive: 14.1 µM [inhibitor, single point]
C=C[C@H]1CN2CC[C@H]1C[C@@H]2CNC(=O)COc1ccccc1 | inconclusive: 35.5 µM [inhibitor, single point]
C#C[C@H]1CN2CC[C@H]1C[C@@H]2CNC(=O)COCC(=O)O | inconclusive: 7.08 µM [inhibitor, full curve, poor fit]
CCOC(=O)[C@H]1CN([S+](=O)([O-])c2cccs2)[C@]2(C)C(=O)N(CCOC)c3ccccc3[C@H]12 | inactive
O=C1Nc2ccccc2CC12CCCN2Cc1ccncc1 (centres undefined) | inconclusive: 44.7 µM [inhibitor, single point]
O=[S+]1([O-])NCC2(CCN(Cc3ccccn3)C2)Oc2ncccc21 (centres undefined) | inactive
CCN(CC)C(=O)c1ccc(C2=CC3(CCNCC3)Oc3cccc(O)c32)cc1 | inconclusive: 6.31 µM [inhibitor, single point]
COc1ccc(-c2cc([C@H]3CN4CC[C@H]3C[C@@H]4CNS(=O)(=O)c3ccc(C)cc3)n(C)n2)cc1OC | inconclusive: 6.31 µM [inhibitor, single point]

Compound | Potency
O=C1Nc2ccccc2C12CCN(Cc1ccc(F)cc1)CC2 | inactive
C=CC(C)(O)CC/C=C(\C)C(=O)O[C@H]1[C@H](O)[C@@H](CO)O[C@@H](OC(=O)[C@]23CCC(C)(C)CC2C2=CCC4[C@@]5(C)CC[C@H](O[C@@H]6O[C@H](CO[C@@H]7OC[C@H](O)[C@H](O)[C@H]7O[C@@H]7OC[C@@H](O)[C@H](O)[C@H]7O)[C@@H](O)[C@H](O)[C@H]6O)C(C)(C)C5CC[C@@]4(C)[C@]2(C)CC3)[C@@H]1OC1OC(C)C(O[C@@H]2OC[C@@H](O)[C@H](O[C@@H]3OC[C@@H](O)[C@H](O)[C@H]3O)[C@H]2O)C(O)C1O (some centres undefined) | inconclusive: 1 µM [inhibitor, partial curve, poor fit]
Cc1ccc(Cn2nc(C(=O)N[C@@H]3C(C)(C)[C@@H]4CC[C@@]3(C)C4)cc2-c2ccc(Cl)c(C)c2)cc1 | inactive
O=C(NCc1ccncc1)C1CNCC12CCOCC2 (centres undefined) | inactive
S=C(SSC(=S)N1CCCCC1)N1CCCCC1 | inconclusive: 25.1 µM [inhibitor, partial curve, poor fit]
CCC(CC)c1cc([C@H]2CN3CC[C@H]2C[C@@H]3CNS(=O)(=O)c2ccccc2C#N)nc(-c2ccncc2)n1 | inconclusive: 3.55 µM [inhibitor, full curve, poor fit]
COC(=O)C12C(=O)C(C)(O)C(=O)C1(C)C(C)=CC1C34CCC(OC3=O)C(C)(C)C4CCC12C (centres undefined) | inconclusive: 3.98 µM [inhibitor, partial curve, poor fit]
COc1ccc(-c2ccc(=O)n3c2[C@@H]2C[C@@H](CN(C(=O)CSC)C2)C3)cc1 | inconclusive: 12.6 µM [inhibitor, single point]
COc1cc2c(cc1OC1CCCC1)NC(=O)C21CCN(C(=O)c2cccc(C#N)c2)CC1 | inactive
COc1cc2c(cc1Oc1ccccc1)NC(=O)C21CCN(Cc2ccccc2)CC1 | inconclusive: 6.31 µM [inhibitor, full curve, poor fit]
NC(C(=O)O)c1cc(=O)[nH]o1 (centres undefined) | inconclusive: 39.8 µM [inhibitor, single point]
COc1ccc(-c2cc([C@H]3CN4CC[C@H]3C[C@@H]4CNC(=O)c3cccs3)n(C)n2)cc1OC | inactive
C[C@@H]1[C@H](O)[C@@H](C)/C=C/C=C/CC/C=C/C=C/C=C/C=C/[C@H](O[C@H]2O[C@@H](C)[C@H](O)[C@@H](N)[C@H]2O)C[C@@H]2O[C@](O)(C[C@@H](O)[C@H](O)CC[C@@H](O)C[C@@H](O)C[C@@H](O)CC(=O)O[C@H]1C)C[C@H](O)[C@H]2C(=O)O | inconclusive: 20 µM [inhibitor, single point]
Cc1noc(C)c1CCN1CCC2(C1)C(=O)N(C)C(=O)N2C (centres undefined) | inactive
O=C(C1CCCCC1)N1C[C@@H]2C[C@H](C1)c1ccc(-c3cccc(C(F)(F)F)c3)c(=O)n1C2 | inconclusive: 39.8 µM [inhibitor, single point]
CCC(C)C1NC(=O)C(C(C)=O)=C1O (centres undefined) | inconclusive: 10 µM [inhibitor, full curve]
COc1ccc(CC(=O)N2Cc3ccccc3CC3(CCCCN3C)C2)cc1 (centres undefined) | inconclusive: 2.51 µM [inhibitor, partial curve, poor fit]
O=C(Nc1ccccc1)[C@H]1CN2CCC1C[C@@H]2Cn1cc(CSc2ccccc2)nn1 (some centres undefined) | inconclusive: 3.16 µM [inhibitor, partial curve, poor fit]
CN1CCC(NCC2(CO)C[C@@H](O)[C@@H](O)C2)CC1 (some centres undefined) | inactive
CS(=O)(=O)NC[C@H]1C[C@@H]2CCN1C[C@@H]2CN1C[C@@H]2C[C@H](C1)c1cccc(=O)n1C2 | inactive

Compound | Potency
COc1cc2c(cc1CCc1ccccc1)N(C(=O)Cc1ccc3c(c1)OCO3)CC21CCN(C(C)=O)CC1 | inactive
CCN(CC)CCOC(=O)C(O)(c1ccccc1)c1ccccc1 | inconclusive: 39.8 µM [inhibitor, single point]
CS[C@]1(CO)C(=O)N2[C@H]3C(=CC=C[C@@H]3O)C[C@@]2(SC)C(=O)N1C | inactive
NC(Cc1ccc(N(CCCl)CCCl)cc1)C(=O)O (centres undefined) | inconclusive: 1.58 µM [inhibitor, partial curve, poor fit]
Cc1[nH]nc2ccc(-c3cncc(OC[C@@H](N)Cc4c[nH]c5ccccc45)c3)cc12 | inactive and inconclusive: 3.85 µM [inhibitor, full curve]
Cc1nc(-c2ccc(N(C)C)cc2)cc([C@H]2CN3CC[C@H]2C[C@@H]3CNC(=O)NC(C)C)n1 | inactive
CCCCC1C(=O)NC(=O)N(C2CCCCC2)C1=O (centres undefined) | inconclusive: 31.6 µM [inhibitor, single point]
Oc1ccc2c3c1O[C@H]1c4oc5ccccc5c4C[C@@]4(O)C(C2)N(CC2CC2)CCC314 (some centres undefined) | inconclusive: 25.1 µM [inhibitor, single point]
O=C(Cn1c(=O)oc2ccccc21)N1[C@H]2CC[C@@H]1c1cnc(-c3ccc(F)cc3)nc1C2 | inactive
CC[n+]1c(-c2ccccc2)c2cc(N)ccc2c2ccc(N)cc21 | inconclusive: 0.708 µM [inhibitor, full curve, poor fit]
COc1cc(CCNCc2ccccc2O)c(OC)cc1C#N | inconclusive: 7.08 µM [inhibitor, single point]
CCOC(=O)c1ncn2c1CN(C)C(=O)c1c(I)cccc1-2 | inconclusive: 6.31 µM [inhibitor, single point]
c1ccc(CCCN2CCN(CCOC(c3ccccc3)c3ccccc3)CC2)cc1 | inconclusive: 43.2 µM [inhibitor, partial curve, poor fit]
N#Cc1cn([C@@H]2O[C@H](CO)[C@H](O)[C@@H]2O)c2ncnc(N)c12 | inconclusive: 6.31 µM [inhibitor, single point]
CC(C)c1nnc2ccc(N3CCN(C)CC3)nn12 | inconclusive: 39.8 µM [inhibitor, single point]
CN1Cc2ccccc2-n2ccnc2C12CCN(C(=O)c1cc(F)cc(F)c1)CC2 | inconclusive: 10 µM [inhibitor, partial curve]
CCCN(CCC)c1c([N+](=O)[O-])cc(S(N)(=O)=O)cc1[N+](=O)[O-] | inconclusive: 1 µM [inhibitor, full curve, poor fit]
CCOP(=S)(OCC)Oc1cc(C)nc(C(C)C)n1 | inconclusive: 39.8 µM [inhibitor, partial curve, poor fit]
COP(=S)(OC)Oc1ccc(Sc2ccc(OP(=S)(OC)OC)cc2)cc1 | inconclusive: 39.8 µM [inhibitor, single point]
